Source: patent US20240043487A1 (Innovent, published 2024)

target: IL-21 receptor on the surface of T cells (HuT78 and HuT78-GFP-PD1 cells) (UniProt Q9HBE5 20-538; P31785 23-369); test: cell-based or functional assay
Sequence of UniProt Q9HBE5 (Q9HBE5 20-538, chain 1 of 2): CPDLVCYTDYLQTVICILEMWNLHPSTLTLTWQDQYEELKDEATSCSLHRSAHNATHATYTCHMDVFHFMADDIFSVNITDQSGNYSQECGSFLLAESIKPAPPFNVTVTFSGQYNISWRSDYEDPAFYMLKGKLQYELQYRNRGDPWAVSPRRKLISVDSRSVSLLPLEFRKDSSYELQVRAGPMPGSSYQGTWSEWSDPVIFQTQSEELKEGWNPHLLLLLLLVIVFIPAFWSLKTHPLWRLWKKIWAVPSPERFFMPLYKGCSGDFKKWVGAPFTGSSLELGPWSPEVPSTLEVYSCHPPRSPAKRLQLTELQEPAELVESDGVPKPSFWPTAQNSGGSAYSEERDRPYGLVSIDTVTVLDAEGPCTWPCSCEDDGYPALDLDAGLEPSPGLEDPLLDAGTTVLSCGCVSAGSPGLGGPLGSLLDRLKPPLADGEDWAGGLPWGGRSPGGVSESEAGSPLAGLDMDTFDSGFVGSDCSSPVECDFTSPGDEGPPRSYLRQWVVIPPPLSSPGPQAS
Sequence of UniProt Q9HBE5 (P31785 23-369, chain 2 of 2, further chain): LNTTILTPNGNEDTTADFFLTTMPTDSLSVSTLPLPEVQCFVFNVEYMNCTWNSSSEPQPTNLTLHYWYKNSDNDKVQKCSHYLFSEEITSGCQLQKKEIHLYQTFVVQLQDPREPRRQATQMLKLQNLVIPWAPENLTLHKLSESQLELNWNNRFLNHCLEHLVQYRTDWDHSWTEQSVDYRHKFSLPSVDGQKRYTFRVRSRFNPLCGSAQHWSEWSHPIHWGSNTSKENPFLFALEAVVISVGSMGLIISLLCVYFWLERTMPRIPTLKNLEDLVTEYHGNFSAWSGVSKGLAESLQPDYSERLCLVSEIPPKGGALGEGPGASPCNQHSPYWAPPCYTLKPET

| Binder | EC50 (nM) of STAT3 phosphorylation, PD1-Positive HuT78-GFP-PD1 cells [nM] | EC50 (nM) of STAT3 phosphorylation, PD1-negative HuT78 cells [nM] |
| --- | --- | --- |
| fusion protein molecule 049 (Format 2: IL-21-004 linked to the C-terminus of the anti-PD-1 antibody heavy chain) (other) heavy: QVQLVQSGAEVKKPGSSVKVSCKASGGTFSSYAISWVRQAPGQGLEWMGLIIPMFDTAGYAQKFQGRVAITVDESTSTAYMELSSLRSEDTAVYYCARAEHSSTGTFDYWGQGTLVTVSSASTKGPSVFPLAPSSKSTSGGTAALGCLVKDYFPEPVTVSWNSGALTSGVHTFPAVLQSSGLYSLSSVVTVPSSSLGTQTYICNVNHKPSNTKVDKKV[letters of human IgG1 Fc with changes omitted]HKSDITLQEMRQLIDIVDQLKNYVNDLVPEFLPAPEDVETNCEWSAFSCFQKAQLKSANTGNNERIINVSIKKLKRKPPSTNAGRRQKHRLTCPSCDSYEKKPPKEFLERFKSLLQKMIHQHLSSRTHGSEDS light: DIQMTQSPSSVSASVGDRVTITCRASQGISSWLAWYQQKPGKAPKLLISAASSLQSGVPSRFSGSGSGTDFTLTISSLQPEDFATYYCQQANHLPFTFGGGTKVEIKRTVAAPSVFIFPPSDEQLKSGTASVVCLLNNFYPREAKVQWKVDNALQSGNSQESVTEQDSKDSTYSLSSTLTLSKADYEKHKVYACEVTHQGLSSPVTKSFNRGEC | 1.53 | ~4380 |
| fusion protein molecule 053 (Format 3: IL-21-004 linked via (G4S)3 to the C-terminus of the knob heavy chain of the anti-PD-1 antibody) (other) heavy 1: QVQLVQSGAEVKKPGSSVKVSCKASGGTFSSYAISWVRQAPGQGLEWMGLIIPMFDTAGYAQKFQGRVAITVDESTSTAYMELSSLRSEDTAVYYCARAEHSSTGTFDYWGQGTLVTVSSASTKGPSVFPLAPSSKSTSGGTAALGCLVKDYFPEPVTVSWNSGALTSGVHTFPAVLQSSGLYSLSSVVTVPSSSLGTQTYICNVNHKPSNTKVDKKV[letters of human IgG1 Fc with changes omitted]GGGGSGGGGSGGGGSHKSDITLQEMRQLIDIVDQLKNYVNDLVPEFLPAPEDVETNCEWSAFSCFQKAQLKSANTGNNERIINVSIKKLKRKPPSTNAGRRQKHRLTCPSCDSYEKKPPKEFLERFKSLLQKMIHQHLSSRTHGSEDS heavy 2: QVQLVQSGAEVKKPGSSVKVSCKASGGTFSSYAISWVRQAPGQGLEWMGLIIPMFDTAGYAQKFQGRVAITVDESTSTAYMELSSLRSEDTAVYYCARAEHSSTGTFDYWGQGTLVTVSSASTKGPSVFPLAPSSKSTSGGTAALGCLVKDYFPEPVTVSWNSGALTSGVHTFPAVLQSSGLYSLSSVVTVPSSSLGTQTYICNVNHKPSNTKVDKKVEPKSCDKTHTCPPCPAPEAAGGPSVFLFPPKPKDTLMISRTPEVTCVVVDVSHEDPEVKFNWYVDGVEVHNAKTKPREEQYNSTYRVVSVLTVLHQDWLNGKEYKCKVSNKALPAPIEKTISKAKGQPREPQVCTLPPSRDELTKNQVSLSCAVKGFYPSDIAVEWESNGQPENNYKTTPPVLDSDGSFFLVSKLTVDKSRWQQGNVFSCSVMHEALHNHYTQKSLSLSPGK light: DIQMTQSPSSVSASVGDRVTITCRASQGISSWLAWYQQKPGKAPKLLISAASSLQSGVPSRFSGSGSGTDFTLTISSLQPEDFATYYCQQANHLPFTFGGGTKVEIKRTVAAPSVFIFPPSDEQLKSGTASVVCLLNNFYPREAKVQWKVDNALQSGNSQESVTEQDSKDSTYSLSSTLTLSKADYEKHKVYACEVTHQGLSSPVTKSFNRGEC | 0.0339 |  |
| fusion protein molecule 064 (Format 3: IL-21-031 linked via (G4S)3 to the C-terminus of the knob heavy chain of the anti-PD-1 antibody) (other) heavy 1: QVQLVQSGAEVKKPGSSVKVSCKASGGTFSSYAISWVRQAPGQGLEWMGLIIPMFDTAGYAQKFQGRVAITVDESTSTAYMELSSLRSEDTAVYYCARAEHSSTGTFDYWGQGTLVTVSSASTKGPSVFPLAPSSKSTSGGTAALGCLVKDYFPEPVTVSWNSGALTSGVHTFPAVLQSSGLYSLSSVVTVPSSSLGTQTYICNVNHKPSNTKVDKKV[letters of human IgG1 Fc with changes omitted]GGGGSGGGGSGGGGSHKSDITLQEMRQLIDIVDQLKNYVNDLVPEFLPAPENVTTNCEWSAFSCFQKAQLKSANTGNNERIINVSIKKLKRKPPSTNAGRRQKHRLTCPSCDSYEKKPPKEFLERFKSLLQKMIHQHLSSRTHGSEDS heavy 2: QVQLVQSGAEVKKPGSSVKVSCKASGGTFSSYAISWVRQAPGQGLEWMGLIIPMFDTAGYAQKFQGRVAITVDESTSTAYMELSSLRSEDTAVYYCARAEHSSTGTFDYWGQGTLVTVSSASTKGPSVFPLAPSSKSTSGGTAALGCLVKDYFPEPVTVSWNSGALTSGVHTFPAVLQSSGLYSLSSVVTVPSSSLGTQTYICNVNHKPSNTKVDKKVEPKSCDKTHTCPPCPAPEAAGGPSVFLFPPKPKDTLMISRTPEVTCVVVDVSHEDPEVKFNWYVDGVEVHNAKTKPREEQYNSTYRVVSVLTVLHQDWLNGKEYKCKVSNKALPAPIEKTISKAKGQPREPQVCTLPPSRDELTKNQVSLSCAVKGFYPSDIAVEWESNGQPENNYKTTPPVLDSDGSFFLVSKLTVDKSRWQQGNVFSCSVMHEALHNHYTQKSLSLSPGK light: DIQMTQSPSSVSASVGDRVTITCRASQGISSWLAWYQQKPGKAPKLLISAASSLQSGVPSRFSGSGSGTDFTLTISSLQPEDFATYYCQQANHLPFTFGGGTKVEIKRTVAAPSVFIFPPSDEQLKSGTASVVCLLNNFYPREAKVQWKVDNALQSGNSQESVTEQDSKDSTYSLSSTLTLSKADYEKHKVYACEVTHQGLSSPVTKSFNRGEC | 3.04 |  |

The next lines start with the values.

| EC50 (nM) of STAT3 phosphorylation, PD1-Positive HuT78-GFP-PD1 cells [nM] | EC50 (nM) of STAT3 phosphorylation, PD1-negative HuT78 cells [nM] | Binder |
| --- | --- | --- |
| 0.0921 |  | fusion protein molecule 055 (Format 3: IL-21-006 linked via (G4S)3 to the C-terminus of the knob heavy chain of the anti-PD-1 antibody) (other) heavy 1: QVQLVQSGAEVKKPGSSVKVSCKASGGTFSSYAISWVRQAPGQGLEWMGLIIPMFDTAGYAQKFQGRVAITVDESTSTAYMELSSLRSEDTAVYYCARAEHSSTGTFDYWGQGTLVTVSSASTKGPSVFPLAPSSKSTSGGTAALGCLVKDYFPEPVTVSWNSGALTSGVHTFPAVLQSSGLYSLSSVVTVPSSSLGTQTYICNVNHKPSNTKVDKKV[letters of human IgG1 Fc with changes omitted]GGGGSGGGGSGGGGSHKSDITLQEIIKLIDIVDQLKNYVNDLVPEFLPAPEDVETNCEWSAFSCFQKAQLKSANTGNNERIINVSIKKLKRKPPSTNAGRRQKHRLTCPSCDSYEKKPPKEFLERFKSLLQKMIHQHLSSRTHGSEDS heavy 2: QVQLVQSGAEVKKPGSSVKVSCKASGGTFSSYAISWVRQAPGQGLEWMGLIIPMFDTAGYAQKFQGRVAITVDESTSTAYMELSSLRSEDTAVYYCARAEHSSTGTFDYWGQGTLVTVSSASTKGPSVFPLAPSSKSTSGGTAALGCLVKDYFPEPVTVSWNSGALTSGVHTFPAVLQSSGLYSLSSVVTVPSSSLGTQTYICNVNHKPSNTKVDKKVEPKSCDKTHTCPPCPAPEAAGGPSVFLFPPKPKDTLMISRTPEVTCVVVDVSHEDPEVKFNWYVDGVEVHNAKTKPREEQYNSTYRVVSVLTVLHQDWLNGKEYKCKVSNKALPAPIEKTISKAKGQPREPQVCTLPPSRDELTKNQVSLSCAVKGFYPSDIAVEWESNGQPENNYKTTPPVLDSDGSFFLVSKLTVDKSRWQQGNVFSCSVMHEALHNHYTQKSLSLSPGK light: DIQMTQSPSSVSASVGDRVTITCRASQGISSWLAWYQQKPGKAPKLLISAASSLQSGVPSRFSGSGSGTDFTLTISSLQPEDFATYYCQQANHLPFTFGGGTKVEIKRTVAAPSVFIFPPSDEQLKSGTASVVCLLNNFYPREAKVQWKVDNALQSGNSQESVTEQDSKDSTYSLSSTLTLSKADYEKHKVYACEVTHQGLSSPVTKSFNRGEC |
| 0.0431 |  | fusion protein molecule 054 (Format 3: IL-21-005 linked via (G4S)3 to the C-terminus of the knob heavy chain of the anti-PD-1 antibody) (other) heavy 1: QVQLVQSGAEVKKPGSSVKVSCKASGGTFSSYAISWVRQAPGQGLEWMGLIIPMFDTAGYAQKFQGRVAITVDESTSTAYMELSSLRSEDTAVYYCARAEHSSTGTFDYWGQGTLVTVSSASTKGPSVFPLAPSSKSTSGGTAALGCLVKDYFPEPVTVSWNSGALTSGVHTFPAVLQSSGLYSLSSVVTVPSSSLGTQTYICNVNHKPSNTKVDKKV[letters of human IgG1 Fc with changes omitted]GGGGSGGGGSGGGGSHKSDITLQEIIKTLNIVDQLKNYVNDLVPEFLPAPEDVETNCEWSAFSCFQKAQLKSANTGNNERIINVSIKKLKRKPPSTNAGRRQKHRLTCPSCDSYEKKPPKEFLERFKSLLQKMIHQHLSSRTHGSEDS heavy 2: QVQLVQSGAEVKKPGSSVKVSCKASGGTFSSYAISWVRQAPGQGLEWMGLIIPMFDTAGYAQKFQGRVAITVDESTSTAYMELSSLRSEDTAVYYCARAEHSSTGTFDYWGQGTLVTVSSASTKGPSVFPLAPSSKSTSGGTAALGCLVKDYFPEPVTVSWNSGALTSGVHTFPAVLQSSGLYSLSSVVTVPSSSLGTQTYICNVNHKPSNTKVDKKVEPKSCDKTHTCPPCPAPEAAGGPSVFLFPPKPKDTLMISRTPEVTCVVVDVSHEDPEVKFNWYVDGVEVHNAKTKPREEQYNSTYRVVSVLTVLHQDWLNGKEYKCKVSNKALPAPIEKTISKAKGQPREPQVCTLPPSRDELTKNQVSLSCAVKGFYPSDIAVEWESNGQPENNYKTTPPVLDSDGSFFLVSKLTVDKSRWQQGNVFSCSVMHEALHNHYTQKSLSLSPGK light: DIQMTQSPSSVSASVGDRVTITCRASQGISSWLAWYQQKPGKAPKLLISAASSLQSGVPSRFSGSGSGTDFTLTISSLQPEDFATYYCQQANHLPFTFGGGTKVEIKRTVAAPSVFIFPPSDEQLKSGTASVVCLLNNFYPREAKVQWKVDNALQSGNSQESVTEQDSKDSTYSLSSTLTLSKADYEKHKVYACEVTHQGLSSPVTKSFNRGEC |
| 0.822 |  | fusion protein molecule 063 (Format 3: IL-21-030 linked via (G4S)3 to the C-terminus of the knob heavy chain of the anti-PD-1 antibody) (other) heavy 1: QVQLVQSGAEVKKPGSSVKVSCKASGGTFSSYAISWVRQAPGQGLEWMGLIIPMFDTAGYAQKFQGRVAITVDESTSTAYMELSSLRSEDTAVYYCARAEHSSTGTFDYWGQGTLVTVSSASTKGPSVFPLAPSSKSTSGGTAALGCLVKDYFPEPVTVSWNSGALTSGVHTFPAVLQSSGLYSLSSVVTVPSSSLGTQTYICNVNHKPSNTKVDKKV[letters of human IgG1 Fc with changes omitted]GGGGSGGGGSGGGGSHKSDITLQEMRQLIDIVDQLKNYVNDLVPEFLPAPEDVETNCEWSAFSCFQKAQLKSANTGNNERIINVSIKKLKRKPPSTNAGRRQKHRLTCPSCDSYEKKPPKEFLERFKSLLQNMTHQHLSSRTHGSEDS heavy 2: QVQLVQSGAEVKKPGSSVKVSCKASGGTFSSYAISWVRQAPGQGLEWMGLIIPMFDTAGYAQKFQGRVAITVDESTSTAYMELSSLRSEDTAVYYCARAEHSSTGTFDYWGQGTLVTVSSASTKGPSVFPLAPSSKSTSGGTAALGCLVKDYFPEPVTVSWNSGALTSGVHTFPAVLQSSGLYSLSSVVTVPSSSLGTQTYICNVNHKPSNTKVDKKVEPKSCDKTHTCPPCPAPEAAGGPSVFLFPPKPKDTLMISRTPEVTCVVVDVSHEDPEVKFNWYVDGVEVHNAKTKPREEQYNSTYRVVSVLTVLHQDWLNGKEYKCKVSNKALPAPIEKTISKAKGQPREPQVCTLPPSRDELTKNQVSLSCAVKGFYPSDIAVEWESNGQPENNYKTTPPVLDSDGSFFLVSKLTVDKSRWQQGNVFSCSVMHEALHNHYTQKSLSLSPGK light: DIQMTQSPSSVSASVGDRVTITCRASQGISSWLAWYQQKPGKAPKLLISAASSLQSGVPSRFSGSGSGTDFTLTISSLQPEDFATYYCQQANHLPFTFGGGTKVEIKRTVAAPSVFIFPPSDEQLKSGTASVVCLLNNFYPREAKVQWKVDNALQSGNSQESVTEQDSKDSTYSLSSTLTLSKADYEKHKVYACEVTHQGLSSPVTKSFNRGEC |
